PubChem BioAssay AID686971 (National Center for Advancing Translational Sciences (NCATS), 2013)
The campaign covered roughly 360,000 compounds. About 7,500 (2.1%) were called active. The inconclusive results got no clear call from the source; some entries with a clear call stand among them for comparison. Calls follow the shape of the dose curve; as a rule, active = well fitted cell-killing curve with a large enough effect; inconclusive = small, poorly fitted or top-dose-only effect, or effect the other way, or another doubt; inactive = no such curve, though single readings can be large or run the other way. Potencies of inconclusive entries are left out as doubtful fits.

assay: qHTS for induction of synthetic lethality in tumor cells producing 2HG: qHTS for the HT-1080-IDH1KD cell line; details: HT-1080 IDH1 knockdown viability, ATP luminescence, 48 h; activity, negative = toxicity: at 46.1 µM (top of the series) unless noted;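 as to activity, negative = toxicity: 0% = DMSO wells and -100% = cell-free medium wells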
Method in brief: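 Viability of IDH1-knockdown HT-1080 fibrosarcoma cells was assessed by CellTiter-Glo after 48 h at 37 °C with titrated compound; concentration-effect curves were classified by fit quality and response size.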
Potency is read from the fitted curve at half-maximal effect; tags tell the direction and shape of the fitted curve.

Row | Compound | activity, negative = toxicity | Potency
1 | O=C(CN1C(=O)NC2(CCCC2)C1=O)OCCOc1ccccc1 | inactive: 0.9% | 
2 | CC(=O)c1ccc(OCC(O)CN2CCN(S(=O)(=O)c3c(C)c(C)cc(C)c3C)CC2)cc1 (stereo unspecified) |  | inconclusive [cytotoxic, partial curve]
3 | Cc1nc(/N=C(\N)NC(=O)c2ccccc2)nc2ccccc12 | inconclusive: -32.3% [cytotoxic] | 
4 | O=C(O)c1ccc(NC2=C/C(=N/S(=O)(=O)c3cccs3)c3ccccc3C2=O)cc1 |  | inconclusive [cytotoxic, single point]
5 | COc1ccccc1N=C1NC(=O)/C(=C/c2ccc(N(C)C)cc2)S1 |  | active: 3.26 µM
6 | Cc1cnc(C(=O)OCC(=O)NCc2ccc3c(c2)OCO3)cn1 | inactive: 2.59% | 
7 | CCOc1ccc(NCC(=O)Nc2ccc(Cl)cc2C)cc1 |  | inconclusive [cytotoxic, single point]
8 | O=C(Nc1nc(-c2ccccn2)cs1)c1ccccc1-n1cnnn1 |  | inconclusive [cytotoxic, full curve]
9 | CSC(=S)NN=C(C)c1cccc(C)n1 |  | inconclusive [cytotoxic, partial curve]
10 | COc1ccc([C@H]2N[C@]3(CCCN(Cc4ccc(Br)cc4)C3=O)[C@H]3C(=O)N(C)C(=O)[C@@H]23)cc1 | inactive: -0.415% | 
11 | Cc1nn(C)c(C)c1CN(C)S(=O)(=O)c1ccc2ccccc2c1 |  | active: 2 µM
12 | O=C(Cn1nc(CNc2ccc(Br)cc2)[n+]2c1CCCCC2)c1ccc([N+](=O)[O-])cc1 |  | inconclusive [cytotoxic, partial curve]
13 | COc1cc(CC(=O)N(C)CC(=O)Nc2ccc(Cl)c(C(F)(F)F)c2)cc(OC)c1OC |  | inconclusive [cytotoxic, single point]
14 | CS/C(=C\[N+](=O)[O-])Nc1ccc(OC(F)(F)F)cc1 |  | inconclusive [cytotoxic, single point]
15 | C/C(=N\NC(=O)c1cccc2ccccc12)c1ccccn1 |  | inconclusive [cytotoxic, full curve]
16 | COC(=O)CCS(=O)(=O)c1nc(-c2ccccc2)cc(C(F)(F)F)n1 |  | active: 3.55 µM
17 | O=C(c1ccc(-c2nc3ccccc3s2)s1)N1CCOCC1 |  | inconclusive [cytotoxic, single point]
18 | CCCCNC(=O)c1onc(CSc2cc(C)cc(C)c2)c1C(=O)O |  | inconclusive [cytotoxic, single point]
19 | COc1ccc(S(=O)(=O)N(C(=O)C(C)C)c2ccc3oc(=O)sc3c2)cc1 |  | inconclusive [cytotoxic, single point]
20 | COc1cc(/C=N/N(c2ccccc2)c2ccccc2)ccc1O |  | active: 16.4 µM
21 | CCn1c(SCc2nc3ccccc3c(=O)[nH]2)nc2ccccc2c1=O |  | inconclusive [cytotoxic, partial curve]
22 | CN1OC[C@@H]2CN(S(=O)(=O)c3cccc(C(F)(F)F)c3)[C@H](c3ccc(-c4cccnc4)cc3)C[C@@H]21 | inconclusive: -5.72% [cytotoxic] | 
23 | CC[C@@H]1CC=C[C@H]2[C@H]1C(=O)N(Cc1ccccc1)[C@H]2c1ccc(OC)c(Cl)c1 |  | inconclusive [cytotoxic, single point]
24 | COc1ccc(Cl)cc1-c1cc(C(=O)NCc2cccc(Cl)c2)[nH]n1 |  | inconclusive [cytotoxic, single point]

Row | Compound | activity, negative = toxicity | Potency
25 | C=Cc1ncc(OC)c2c1[nH]c1ccccc12 |  | inconclusive [cytotoxic, partial curve]
26 | COc1ccc(-c2ccc(CN3C(C(C)C)C(=O)N(Cc4cn(CCC5OCCCO5)nn4)CCS3(=O)=O)cc2)cn1 (stereo unspecified) | inactive: 5.57% | 
27 | COc1cccc(NC(=O)NCCCN2CCN(c3ccc(F)cc3)CC2)c1 |  | inconclusive [cytotoxic, single point]
28 | O=C(N/N=C/c1ccc(N2CCCCC2)o1)c1ccccc1 |  | inconclusive [cytotoxic, single point]
29 | O=C1NC(=O)c2cc(Br)cc3cccc1c23 | inconclusive: -7.85% [cytotoxic] | 
30 | O=C(CN1C(=O)/C(=C/c2ccc(C(F)(F)F)cc2)Sc2ccccc21)NCCCN1CCOCC1 |  | inconclusive [cytotoxic, single point]
31 | O=C(Nc1ccc(-c2nc3ccccc3s2)cc1)c1cc(-n2cnnc2)ccc1Cl |  | active: 11.2 µM
32 | COc1cc(C#Cc2c(-c3cncn3C)n(C)c3ccc(-c4ccc(OC)c(OC)c4)cc23)cc(OC)c1 |  | inconclusive [cytotoxic, partial curve]
33 | COc1ccc(C2=Nc3ccccc3NC(=O)C2N(C(=O)c2ccnc3ccccc23)c2ccccc2)cc1 (stereo unspecified) |  | inconclusive [cytotoxic, single point]
34 | S=C(NCCc1ccccc1)Nc1ccc(Nc2ccccc2)cc1 |  | inconclusive [cytotoxic, single point]
35 | CC(=O)c1c(C)[nH]c(C(=O)COC(=O)CNS(=O)(=O)c2ccccc2)c1C | inactive: 8.29% | 
36 | O=C(NC(=S)N1CCCC1)c1ccc(Cl)cc1 | inactive: -1.07% | 
37 | CCOc1ccc(-c2c(C(=O)N/N=C/c3ccoc3)nnn2-c2nonc2N)cc1 |  | inconclusive [cytotoxic, single point]
38 | CN(Cc1nc2ccccc2c(=O)[nH]1)C(=O)C1CC(=O)N(c2cccc3ccccc23)C1 (stereo unspecified) | inactive: -19.7% | 
39 | CC(C)c1ccc(NC(=O)C2CCC(CNC(=O)[C@@H]3Cc4ccccc4CN3)CC2)cc1 (stereo partly specified) |  | inconclusive [cytotoxic, single point]
40 | Cc1ccc(C(C)(C)C)c(SCC(=O)Nc2nnc(C)s2)c1 | inactive: -14.4% | 
41 | CC(C)CC1C(=O)N(Cc2cn(Cc3ccco3)nn2)CCS(=O)(=O)N1Cc1ccc(-c2ccc(Cl)cc2)cc1 (stereo unspecified) |  | inconclusive [cytotoxic, single point]
42 | Cc1ccc(NC(=O)CCC(=O)NNC(=O)c2ccccc2Cl)c(C)c1 | inactive: 8.06% | 
43 | COc1ccccc1C(NC(=O)C1CCN(CCOc2ccc3ccccc3c2)CC1)c1ccccn1 (stereo unspecified) |  | active: 18.4 µM
44 | CCn1c(=O)[nH]c(=O)c2c(N)c(C(=O)c3cc(F)ccc3F)sc21 | inactive: -0.528% | 
45 | CCNC(=O)NC(=O)C(C)OC(=O)CNS(=O)(=O)c1c(Cl)cc(Br)cc1Cl (stereo unspecified) | inactive: 0.902% | 
46 | COc1ccc(NS(=O)(=O)c2ccc(-c3cnc(C4CC4)o3)cc2)cc1OC |  | active: 14.6 µM
47 | CN1/C(=C\C(=O)COC(=O)Cn2nnc(-c3ccccc3)n2)C(C)(C)c2ccccc21 |  | inconclusive [cytotoxic, single point]
48 | COc1cc(-c2nc3ccc4ccccc4c3c3c2CCC3)cc(OC)c1OC |  | inconclusive [cytotoxic, single point]

Row | Compound | activity, negative = toxicity | Potency
49 | NC(=NCCc1ccc(Cl)cc1)NS(=O)(=O)c1ccc(F)cc1 | inactive: -1.63% | 
50 | CCCc1cc(=O)oc2c3c(c4c(c12)OC(C)(C)C=C4)OC(C)C(C)C3O (stereo unspecified) |  | active: 3.66 µM
51 | COCCN(CC(=O)NC1CCCCC1)C(=O)/C=C/C(=O)c1ccc(OC)cc1O |  | inconclusive [cytotoxic, single point]
52 | CNc1oc(Cc2ccccc2)nc1S(=O)(=O)c1ccccc1 |  | inconclusive [cytotoxic, single point]
53 | O=C(CSc1nncn1-c1ccccc1)Nc1ccc(N2CCOCC2)cc1 | inactive: 13.9% | 
54 | COc1ccccc1NC(=O)N1CCCC(c2nc3c(nnn3Cc3ccc(C)cc3)c(=O)[nH]2)C1 (stereo unspecified) |  | inconclusive [cytotoxic, single point]
55 | O=C(NC12CC3CC(CC(C3)C1)C2)c1cc(F)c(F)c(F)c1F | inactive: -3.57% | 
56 | CCCCc1ccc(NC2=NCC(=O)N2CCc2ccccc2)cc1 |  | active: 25.9 µM
57 | CC1CCN=C(N)S1 (stereo unspecified) | inactive: 5.23% | 
58 | Cc1ccc(CN(C)C(=O)c2cccc(S(=O)(=O)N3CCc4ccccc43)c2)cc1 |  | inconclusive [cytotoxic, partial curve]
59 | NNC(=O)c1cccc(Cn2cc(Br)c([N+](=O)[O-])n2)c1 |  | inconclusive [cytotoxic, single point]
60 | CCCCCc1c(-c2ccc(Br)cc2)ncn1CCc1ccccc1OC |  | active: 20.6 µM
61 | CN(Cc1ccc(Cl)cc1)C(c1cc2ccccc2o1)c1nnnn1C(C)(C)C (stereo unspecified) |  | inconclusive [cytotoxic, partial curve]
62 | C(=N\Nc1nc2ccccc2s1)/c1ccccn1 |  | active: 6.51 µM
63 | Cc1c(C(=O)Nc2c(C)n(C)n(-c3ccccc3)c2=O)oc2ccc(Cl)cc12 |  | inconclusive [cytotoxic, single point]
64 | COc1cccc(CNC(=O)C2(C)Oc3ccccc3NC2=O)c1 (stereo unspecified) | inactive: -2.06% | 
65 | CCNC(=O)C1(C)CCCN1Cc1ccccc1Cl (stereo unspecified) | inactive: 20.4% | 
66 | Cn1cc(C(=O)c2ccc(Cl)cc2)cc1-c1nc2ccccc2n1C |  | inconclusive [cytotoxic, partial curve]
67 | CCOC(=O)CC(NC(=O)Cc1ccc(F)cc1)c1ccccc1Cl (stereo unspecified) | inactive: 13% | 
68 | CCOC(=O)C1CCCN(C(=O)COC(=O)c2ccc(C#N)cc2)C1 (stereo unspecified) | inactive: 7.71% | 
69 | CCN(CC)C(=O)C1=C(C)N(CCC2=CCCCC2)C(=O)C(CC(=O)NCc2cccc3ccccc23)C1 (stereo unspecified) |  | inconclusive [cytotoxic, single point]
70 | Cc1ccc(SCc2[nH]nc3c2C2(CCSCC2)C(C#N)=C(N)O3)cc1 |  | inconclusive [cytotoxic, partial curve]
71 | N#C/C(=C\c1ccc(O)c(O)c1)C(=O)NCCCc1ccccc1 |  | inconclusive [cytotoxic, partial curve]
